Experimental data published in the supplement of paper PMC11417369.
The list shows a part of the results.

Each sequence was assayed on PfHDP1 homeodomain (GST-tagged) (assay: gcPBM binding intensity (ln(normalized median fluorescence intensity)); higher = stronger DNA binding).
Outline: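 After 1 h on an Agilent 4 × 180k array of primer-extended double-stranded 36-bp intergenic genomic probes and negative controls, bound GST-tagged P. falciparum DNA-binding domains were detected with Alexa488 anti-GST antibody and scanned at 488 nm. The domains had been expressed in E. coli, and binding took place in 1× PBS with 1% milk, 0.2 mg/ml BSA, 0.5% salmon testes DNA and 0.03% Triton X-100. Binding intensity is the highest Masliner-normalised natural-log median intensity across replicate spots of either probe orientation.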

How did the “gcPBM binding intensity (ln)” value turn out when “CCTTTATAAAAAAGTAGTACACAATGAATTTATAAT [XGTACX_site5523]” was run?
Its value is 6.63.

How did the “gcPBM binding intensity (ln)” value turn out when “CAATACTAATTGTATACACACAAAAATATACCATAT [CACACA_site3326]” was run?
The value was 6.52.

For “TCTTTTTTTACTTTCTTTTTTTTTTTTTTTTTTTTT [XGTACX_negctrl_site610]”, which “gcPBM binding intensity (ln)” value is on record?
The value was 6.86.

How did the “gcPBM binding intensity (ln)” value turn out when “TGTTAATTAAAACATCATTAATATTATTAAAAATAC [XGTACX_negctrl_site509]” was run?
The value was 6.26.

With “TATATTAATTTATATCAACACACAAAATCAATATAC [CACACA_site8518]” as the sequence, how does the “gcPBM binding intensity (ln)” value read?
The value was 6.59.

With “TTAGCTACACGCTAATGTACACAAATACAAAGAAAA [XGTACX_site3993]” as the sequence, how does the “gcPBM binding intensity (ln)” value read?
Its value is 6.58.

Which “gcPBM binding intensity (ln)” value does the source give for “TATACGCATATATAAACACACAAAAAAAAAAAAAAA [CACACA_site2026]” here?
The value was 6.33.

How did the “gcPBM binding intensity (ln)” value turn out when “ATAAAATATTATATATATATATATATATATATATAT [CACACA_negctrl_site215]” was run?
The value was 9.37.

With “AAGAATGTTATATTATGATGCTGTCTTTTTTTAAGA [CACACA_negctrl_site251]” as the sequence, how does the “gcPBM binding intensity (ln)” value read?
Its value is 5.94.

With “AATAAACATATATGTACACACATATACATATATATA [CACACA_site2848]” as the sequence, how does the “gcPBM binding intensity (ln)” value read?
The value was 6.62.

How did the “gcPBM binding intensity (ln)” value turn out when “TTTTTTTTTAATTATGCATGTAAATTATATATTATA [TGCATGCA_site335]” was run?
The value was 6.35.

“TATTTATAATTAAATACACACATATATTATATATTT [CACACA_site616]” was tested. Which “gcPBM binding intensity (ln)” value did it give?
The value was 6.6.

With “TAATTTTTTTTATTATGTACTTAATAAATGTTAATT [XGTACX_site365]” as the sequence, how does the “gcPBM binding intensity (ln)” value read?
The value was 6.31.

With “TATATTTATAGACACACACACAAAAAAAAAAAAAAA [CACACA_site6818]” as the sequence, how does the “gcPBM binding intensity (ln)” value read?
Its value is 6.28.

How did the “gcPBM binding intensity (ln)” value turn out when “AAATTATTTATATGTTGTACTTATCCATTTTTATAA [XGTACX_site7441]” was run?
Its value is 6.56.

For “ACATAAGATGAAAAATGTACATTCAAAAAATGAAAT [XGTACX_site3227]”, which “gcPBM binding intensity (ln)” value is on record?
The value was 6.52.

With “AAATTTCATGGGTATTGTACATAATTTTATTATATA [XGTACX_site4988]” as the sequence, how does the “gcPBM binding intensity (ln)” value read?
The value was 6.61.

Which “gcPBM binding intensity (ln)” value does the source give for “ACAAAACTGTCTTTCACACAGAAATAAAAAAAAAAA [CACACA_site5829]” here?
The value was 6.11.

With “TGATAAGGATGTGAATTACTCAAAGGAAGTAATCAT [CACACA_negctrl_site1432]” as the sequence, how does the “gcPBM binding intensity (ln)” value read?
Its value is 6.15.

For “ATTTTATTTTCATATGAACACACATATATATATTAT [CACACA_site8741]”, which “gcPBM binding intensity (ln)” value is on record?
The value was 7.61.

With “AACAACCAAAGGCACACACACAAAAAAAAAAATATA [CACACA_site399]” as the sequence, how does the “gcPBM binding intensity (ln)” value read?
The value was 6.55.

With “CTGCGTTTAATATGCGTGCACCTTGGTTTTATATCT [GTGCAC_site9525]” as the sequence, how does the “gcPBM binding intensity (ln)” value read?
Its value is 8.8.

Which “gcPBM binding intensity (ln)” value does the source give for “TTTTAAATATGCCATACACACTACTATATAATAAAT [CACACA_site5119]” here?
The value was 6.74.

With “TGTTGTATTGAAGCTAAAAAATGAGGCAAAAAAAAA [CACACA_negctrl_site1189]” as the sequence, how does the “gcPBM binding intensity (ln)” value read?
The value was 6.67.

For “TTTATATAATATAAATTTTTTTTGCAGTAATAAAAA [TGCATGCA_negctrl_site570]”, which “gcPBM binding intensity (ln)” value is on record?
Its value is 6.37.

“ACTTCAAAAAAAAAAAAATATATATATATATATTAT [GTGCAC_negctrl_site158]” was tested. Which “gcPBM binding intensity (ln)” value did it give?
The value was 6.46.

Which “gcPBM binding intensity (ln)” value does the source give for “ATTTATGAGTAATACACACACTTGTGGATATATTAC [CACACA_site7735]” here?
The value was 6.89.

“TTATACACAAAAAAAAAAATATATATATATATATAT [XGTACX_negctrl_site5]” was tested. Which “gcPBM binding intensity (ln)” value did it give?
Its value is 9.52.

How did the “gcPBM binding intensity (ln)” value turn out when “TATATATATGTATGTGGTACTTATATTATATACATA [XGTACX_site4550]” was run?
The value was 6.27.

“TATTTACACCCATGCGCACACATAAATAAATAATAG [CACACA_site5350]” was tested. Which “gcPBM binding intensity (ln)” value did it give?
The value was 7.91.

Which “gcPBM binding intensity (ln)” value does the source give for CCATGTAGTGAATAGGTGCATATCAAAAAAAAAAAA here?
Its value is 8.24.

With “ATACATATGGTGGATCGTACATATATATAATATGTA [XGTACX_site8631]” as the sequence, how does the “gcPBM binding intensity (ln)” value read?
Its value is 6.5.

Which “gcPBM binding intensity (ln)” value does the source give for “ACAGAAAATAAAATTTGTACATATATAGAATAAAGA [XGTACX_site3014]” here?
The value was 6.59.

How did the “gcPBM binding intensity (ln)” value turn out when “TAAATATCAAGACACACACACAAAAGTGAATAAATA [CACACA_site7723]” was run?
The value was 6.61.

“AGATATTATTTATATATTTATATATATATATAGATA [TGCATGCA_negctrl_site77]” was tested. Which “gcPBM binding intensity (ln)” value did it give?
The value was 6.23.

Which “gcPBM binding intensity (ln)” value does the source give for “AGAGAAAAAAAAAATTGTACGTATGTAATAATATGC [XGTACX_site2981]” here?
The value was 6.88.

How did the “gcPBM binding intensity (ln)” value turn out when “AAAGTAAAAGAAAGCACACACACATGGATTTATGTA [CACACA_site5997]” was run?
The value was 6.55.

For “TTCTTTTTAAATTACACACACATATATATATGTATA [CACACA_site3515]”, which “gcPBM binding intensity (ln)” value is on record?
The value was 7.15.

How did the “gcPBM binding intensity (ln)” value turn out when “ATTATTTATTATTTCTGTACGTATAAAAATAACATT [XGTACX_site1671]” was run?
The value was 6.67.

How did the “gcPBM binding intensity (ln)” value turn out when “ATAAAACATAAAAATCGTACAAAGGAGGATATAAGG [XGTACX_site420]” was run?
The value was 7.27.

“AAAATGATGTTAATTACACACATCATCTCATAAACA [CACACA_site3017]” was tested. Which “gcPBM binding intensity (ln)” value did it give?
Its value is 6.23.

For “TGGAGGTCAGTTCACAGTACCCAGAAAACTCTACGA [XGTACX_site2561]”, which “gcPBM binding intensity (ln)” value is on record?
The value was 5.7.

Which “gcPBM binding intensity (ln)” value does the source give for “CTTTTAATGGTGTAAAGTACTTTCTTAAGGTTCAAA [XGTACX_site8423]” here?
The value was 6.44.

TTTAATTATTAAATGGTGCACTTGAAATATAAAAAT was tested. Which “gcPBM binding intensity (ln)” value did it give?
The value was 10.1.
